Results are given in words; binding and its absence hold for the method and conditions named. In cells and extracts the contact can be indirect. Some results given as binding are weak or reduced against the parent protein; the word gives no strength. For some of these results: Tags and fused reporters may be left off the sequences shown. One block for each binder: values may come before it.
Tests used:
[1] = biological target: T1, GFP-TSC22D2 full-length (FL) WT (human) (UniProt O75157); assay: co-IP; HEK293 co-transfected with GFP-TSC22D2 or GFP-TSC22D4 (full length) and FLAG-tagged full-length or C-terminally deleted TSC22D2/TSC22D4; immunoprecipitation and immunoblotting (Fig. 2F); lysis/IP buffer 50 mM tris-HCl pH 7.5, 1% NP-40, 100 mM NaCl
T1 sequence: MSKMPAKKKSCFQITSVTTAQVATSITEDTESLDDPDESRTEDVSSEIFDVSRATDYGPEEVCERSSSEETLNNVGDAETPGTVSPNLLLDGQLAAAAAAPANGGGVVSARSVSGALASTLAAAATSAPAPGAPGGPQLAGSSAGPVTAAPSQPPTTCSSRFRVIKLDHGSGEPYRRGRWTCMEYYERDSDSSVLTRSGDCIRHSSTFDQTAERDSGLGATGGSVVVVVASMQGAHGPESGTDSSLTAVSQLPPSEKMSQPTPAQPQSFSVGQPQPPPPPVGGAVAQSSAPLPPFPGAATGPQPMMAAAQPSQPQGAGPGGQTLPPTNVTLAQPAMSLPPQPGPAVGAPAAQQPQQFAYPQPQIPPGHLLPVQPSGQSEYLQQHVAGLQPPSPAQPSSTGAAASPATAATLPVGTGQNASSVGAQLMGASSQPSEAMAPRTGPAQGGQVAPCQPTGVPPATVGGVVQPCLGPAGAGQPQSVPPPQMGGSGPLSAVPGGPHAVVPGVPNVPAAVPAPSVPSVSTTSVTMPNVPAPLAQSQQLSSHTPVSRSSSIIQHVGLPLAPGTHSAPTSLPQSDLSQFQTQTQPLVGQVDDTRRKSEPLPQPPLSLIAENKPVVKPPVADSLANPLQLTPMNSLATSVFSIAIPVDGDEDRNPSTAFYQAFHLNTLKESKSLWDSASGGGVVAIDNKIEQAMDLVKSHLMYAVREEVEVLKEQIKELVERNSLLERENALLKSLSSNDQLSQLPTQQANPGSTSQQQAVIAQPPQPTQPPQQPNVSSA

By UniProt entry, the sequences of proteins in these tests, tags left out. Residues count along the entry.
isolated CCTL1 domain of WNK1 (EGFP-WNK1 450-600) (Q9H4A3, residues 450-600): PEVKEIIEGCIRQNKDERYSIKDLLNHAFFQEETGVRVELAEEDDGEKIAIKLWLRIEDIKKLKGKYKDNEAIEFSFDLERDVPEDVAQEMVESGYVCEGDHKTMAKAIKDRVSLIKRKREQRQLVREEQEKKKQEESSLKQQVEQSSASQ
isolated CCTL2 domain of WNK1 (EGFP-WNK1 1056-1217) (Q9H4A3, residues 1056-1217): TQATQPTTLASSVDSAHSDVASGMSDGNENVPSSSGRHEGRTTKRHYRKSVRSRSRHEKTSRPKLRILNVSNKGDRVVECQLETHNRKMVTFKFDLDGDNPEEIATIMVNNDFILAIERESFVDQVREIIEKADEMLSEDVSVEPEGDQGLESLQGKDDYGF
UniProt Q9UHY1: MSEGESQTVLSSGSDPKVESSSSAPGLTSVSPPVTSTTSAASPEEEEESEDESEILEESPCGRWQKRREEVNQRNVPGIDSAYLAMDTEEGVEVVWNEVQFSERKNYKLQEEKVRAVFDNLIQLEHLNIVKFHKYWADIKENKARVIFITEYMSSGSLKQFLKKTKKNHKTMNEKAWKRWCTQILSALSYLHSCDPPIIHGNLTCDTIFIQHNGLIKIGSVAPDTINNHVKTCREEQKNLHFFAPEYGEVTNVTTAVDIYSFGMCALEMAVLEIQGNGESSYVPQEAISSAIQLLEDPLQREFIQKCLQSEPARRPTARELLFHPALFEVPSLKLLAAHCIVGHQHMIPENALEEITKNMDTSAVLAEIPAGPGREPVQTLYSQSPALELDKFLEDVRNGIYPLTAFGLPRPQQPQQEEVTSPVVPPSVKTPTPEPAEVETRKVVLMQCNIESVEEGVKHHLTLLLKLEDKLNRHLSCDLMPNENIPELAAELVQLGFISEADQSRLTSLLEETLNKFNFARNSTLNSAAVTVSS

[2] = biological target: T2, GFP-TSC22D4 full-length (FL) WT (human) (UniProt Q9Y3Q8); assay: as above
T2 sequence: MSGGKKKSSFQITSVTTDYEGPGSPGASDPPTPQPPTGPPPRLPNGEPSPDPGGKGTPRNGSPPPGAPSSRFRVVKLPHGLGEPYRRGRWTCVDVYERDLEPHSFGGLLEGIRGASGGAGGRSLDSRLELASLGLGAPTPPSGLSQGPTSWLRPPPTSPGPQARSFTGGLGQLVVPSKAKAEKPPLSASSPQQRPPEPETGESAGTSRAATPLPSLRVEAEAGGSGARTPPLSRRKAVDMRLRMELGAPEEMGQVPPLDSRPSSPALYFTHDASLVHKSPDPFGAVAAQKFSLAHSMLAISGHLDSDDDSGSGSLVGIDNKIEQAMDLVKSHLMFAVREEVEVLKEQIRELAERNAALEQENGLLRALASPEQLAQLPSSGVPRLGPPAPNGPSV

[3] = biological target: isolated CCTL1 domain of WNK1 (EGFP-WNK1 450-600) (human) (UniProt Q9H4A3); assay: co-IP; isolated CCTL1 or CCTL2 domain of WNK1 co-expressed with full-length TSC22D2 or TSC22D4, wild type or RΦ-motif mutants (fig. S8, E and F)
[4] = biological target: isolated CCTL2 domain of WNK1 (EGFP-WNK1 1056-1217) (human) (UniProt Q9H4A3); assay: as above
[5] = biological target: GFP-NRBP1 (N-terminal GFP knock-in at the endogenous NRBP1 locus) (human (endogenous in HEK293)) (UniProt Q9UHY1); assay: co-IP; GFP-NRBP1 KI HEK293 cells with or without 0.5 M sorbitol (1 to 30 min; WNK inhibitors in Fig. 4F); immunoprecipitation with GFP nanobody beads; immunoblot of endogenous partners (Figs. 4E,F, 7C, fig. S5A)

B3: FLAG-TSC22D2 (full length, wild type) (protein, UniProt O75157 1-780)
chain: MSKMPAKKKSCFQITSVTTAQVATSITEDTESLDDPDESRTEDVSSEIFDVSRATDYGPEEVCERSSSEETLNNVGDAETPGTVSPNLLLDGQLAAAAAAPANGGGVVSARSVSGALASTLAAAATSAPAPGAPGGPQLAGSSAGPVTAAPSQPPTTCSSRFRVIKLDHGSGEPYRRGRWTCMEYYERDSDSSVLTRSGDCIRHSSTFDQTAERDSGLGATGGSVVVVVASMQGAHGPESGTDSSLTAVSQLPPSEKMSQPTPAQPQSFSVGQPQPPPPPVGGAVAQSSAPLPPFPGAATGPQPMMAAAQPSQPQGAGPGGQTLPPTNVTLAQPAMSLPPQPGPAVGAPAAQQPQQFAYPQPQIPPGHLLPVQPSGQSEYLQQHVAGLQPPSPAQPSSTGAAASPATAATLPVGTGQNASSVGAQLMGASSQPSEAMAPRTGPAQGGQVAPCQPTGVPPATVGGVVQPCLGPAGAGQPQSVPPPQMGGSGPLSAVPGGPHAVVPGVPNVPAAVPAPSVPSVSTTSVTMPNVPAPLAQSQQLSSHTPVSRSSSIIQHVGLPLAPGTHSAPTSLPQSDLSQFQTQTQPLVGQVDDTRRKSEPLPQPPLSLIAENKPVVKPPVADSLANPLQLTPMNSLATSVFSIAIPVDGDEDRNPSTAFYQAFHLNTLKESKSLWDSASGGGVVAIDNKIEQAMDLVKSHLMYAVREEVEVLKEQIKELVERNSLLERENALLKSLSSNDQLSQLPTQQANPGSTSQQQAVIAQPPQPTQPPQQPNVSSA
binding [3]: binds
binding [4]: binds
binding [2]: binds

B4: FLAG-TSC22D4 (full length, wild type) (protein, UniProt Q9Y3Q8 1-395)
chain: MSGGKKKSSFQITSVTTDYEGPGSPGASDPPTPQPPTGPPPRLPNGEPSPDPGGKGTPRNGSPPPGAPSSRFRVVKLPHGLGEPYRRGRWTCVDVYERDLEPHSFGGLLEGIRGASGGAGGRSLDSRLELASLGLGAPTPPSGLSQGPTSWLRPPPTSPGPQARSFTGGLGQLVVPSKAKAEKPPLSASSPQQRPPEPETGESAGTSRAATPLPSLRVEAEAGGSGARTPPLSRRKAVDMRLRMELGAPEEMGQVPPLDSRPSSPALYFTHDASLVHKSPDPFGAVAAQKFSLAHSMLAISGHLDSDDDSGSGSLVGIDNKIEQAMDLVKSHLMFAVREEVEVLKEQIRELAERNAALEQENGLLRALASPEQLAQLPSSGVPRLGPPAPNGPSV
binding [3]: binds
binding [4]: binds
binding [1]: binds

B6: FLAG-TSC22D2Δ (TSC22D2 M1-I690, lacking the C-terminal TSC22 domain) (domain or fragment, UniProt O75157 1-690)
chain: MSKMPAKKKSCFQITSVTTAQVATSITEDTESLDDPDESRTEDVSSEIFDVSRATDYGPEEVCERSSSEETLNNVGDAETPGTVSPNLLLDGQLAAAAAAPANGGGVVSARSVSGALASTLAAAATSAPAPGAPGGPQLAGSSAGPVTAAPSQPPTTCSSRFRVIKLDHGSGEPYRRGRWTCMEYYERDSDSSVLTRSGDCIRHSSTFDQTAERDSGLGATGGSVVVVVASMQGAHGPESGTDSSLTAVSQLPPSEKMSQPTPAQPQSFSVGQPQPPPPPVGGAVAQSSAPLPPFPGAATGPQPMMAAAQPSQPQGAGPGGQTLPPTNVTLAQPAMSLPPQPGPAVGAPAAQQPQQFAYPQPQIPPGHLLPVQPSGQSEYLQQHVAGLQPPSPAQPSSTGAAASPATAATLPVGTGQNASSVGAQLMGASSQPSEAMAPRTGPAQGGQVAPCQPTGVPPATVGGVVQPCLGPAGAGQPQSVPPPQMGGSGPLSAVPGGPHAVVPGVPNVPAAVPAPSVPSVSTTSVTMPNVPAPLAQSQQLSSHTPVSRSSSIIQHVGLPLAPGTHSAPTSLPQSDLSQFQTQTQPLVGQVDDTRRKSEPLPQPPLSLIAENKPVVKPPVADSLANPLQLTPMNSLATSVFSIAIPVDGDEDRNPSTAFYQAFHLNTLKESKSLWDSASGGGVVAIDNKI
binding [1]: no binding
binding [2]: no binding

B7: FLAG-TSC22D4Δ (TSC22D4 M1-N320, lacking the C-terminal TSC22 domain) (domain or fragment, UniProt Q9Y3Q8 1-320)
chain: MSGGKKKSSFQITSVTTDYEGPGSPGASDPPTPQPPTGPPPRLPNGEPSPDPGGKGTPRNGSPPPGAPSSRFRVVKLPHGLGEPYRRGRWTCVDVYERDLEPHSFGGLLEGIRGASGGAGGRSLDSRLELASLGLGAPTPPSGLSQGPTSWLRPPPTSPGPQARSFTGGLGQLVVPSKAKAEKPPLSASSPQQRPPEPETGESAGTSRAATPLPSLRVEAEAGGSGARTPPLSRRKAVDMRLRMELGAPEEMGQVPPLDSRPSSPALYFTHDASLVHKSPDPFGAVAAQKFSLAHSMLAISGHLDSDDDSGSGSLVGIDN
binding [1]: no binding
binding [2]: no binding

The remaining lines, values ahead:

binding [1]: binds
B1: GFP-TSC22D2 full-length (FL) WT (protein, UniProt O75157 1-780)
chain: MSKMPAKKKSCFQITSVTTAQVATSITEDTESLDDPDESRTEDVSSEIFDVSRATDYGPEEVCERSSSEETLNNVGDAETPGTVSPNLLLDGQLAAAAAAPANGGGVVSARSVSGALASTLAAAATSAPAPGAPGGPQLAGSSAGPVTAAPSQPPTTCSSRFRVIKLDHGSGEPYRRGRWTCMEYYERDSDSSVLTRSGDCIRHSSTFDQTAERDSGLGATGGSVVVVVASMQGAHGPESGTDSSLTAVSQLPPSEKMSQPTPAQPQSFSVGQPQPPPPPVGGAVAQSSAPLPPFPGAATGPQPMMAAAQPSQPQGAGPGGQTLPPTNVTLAQPAMSLPPQPGPAVGAPAAQQPQQFAYPQPQIPPGHLLPVQPSGQSEYLQQHVAGLQPPSPAQPSSTGAAASPATAATLPVGTGQNASSVGAQLMGASSQPSEAMAPRTGPAQGGQVAPCQPTGVPPATVGGVVQPCLGPAGAGQPQSVPPPQMGGSGPLSAVPGGPHAVVPGVPNVPAAVPAPSVPSVSTTSVTMPNVPAPLAQSQQLSSHTPVSRSSSIIQHVGLPLAPGTHSAPTSLPQSDLSQFQTQTQPLVGQVDDTRRKSEPLPQPPLSLIAENKPVVKPPVADSLANPLQLTPMNSLATSVFSIAIPVDGDEDRNPSTAFYQAFHLNTLKESKSLWDSASGGGVVAIDNKIEQAMDLVKSHLMYAVREEVEVLKEQIKELVERNSLLERENALLKSLSSNDQLSQLPTQQANPGSTSQQQAVIAQPPQPTQPPQQPNVSSA

binding [2]: binds
B2: GFP-TSC22D4 full-length (FL) WT (protein, UniProt Q9Y3Q8 1-395)
chain: MSGGKKKSSFQITSVTTDYEGPGSPGASDPPTPQPPTGPPPRLPNGEPSPDPGGKGTPRNGSPPPGAPSSRFRVVKLPHGLGEPYRRGRWTCVDVYERDLEPHSFGGLLEGIRGASGGAGGRSLDSRLELASLGLGAPTPPSGLSQGPTSWLRPPPTSPGPQARSFTGGLGQLVVPSKAKAEKPPLSASSPQQRPPEPETGESAGTSRAATPLPSLRVEAEAGGSGARTPPLSRRKAVDMRLRMELGAPEEMGQVPPLDSRPSSPALYFTHDASLVHKSPDPFGAVAAQKFSLAHSMLAISGHLDSDDDSGSGSLVGIDNKIEQAMDLVKSHLMFAVREEVEVLKEQIRELAERNAALEQENGLLRALASPEQLAQLPSSGVPRLGPPAPNGPSV

binding [5]: binds
B5: TSC22D4, endogenous (protein, UniProt Q9Y3Q8 1-395)
chain: MSGGKKKSSFQITSVTTDYEGPGSPGASDPPTPQPPTGPPPRLPNGEPSPDPGGKGTPRNGSPPPGAPSSRFRVVKLPHGLGEPYRRGRWTCVDVYERDLEPHSFGGLLEGIRGASGGAGGRSLDSRLELASLGLGAPTPPSGLSQGPTSWLRPPPTSPGPQARSFTGGLGQLVVPSKAKAEKPPLSASSPQQRPPEPETGESAGTSRAATPLPSLRVEAEAGGSGARTPPLSRRKAVDMRLRMELGAPEEMGQVPPLDSRPSSPALYFTHDASLVHKSPDPFGAVAAQKFSLAHSMLAISGHLDSDDDSGSGSLVGIDNKIEQAMDLVKSHLMFAVREEVEVLKEQIRELAERNAALEQENGLLRALASPEQLAQLPSSGVPRLGPPAPNGPSV
